Measurements from paper PMC1762419.
Where two headings read alike, the source gives them in different places. Results are given in words; binding and its absence hold for the method and conditions named. Binding seen in cells or lysates may run through a third protein. Some binding calls cover weakened binding; strength is not graded here. Tags and fused reporters may be left off the sequences shown.

Chains of the proteins cited; added tags and fusions are not shown.
UniProt P20226: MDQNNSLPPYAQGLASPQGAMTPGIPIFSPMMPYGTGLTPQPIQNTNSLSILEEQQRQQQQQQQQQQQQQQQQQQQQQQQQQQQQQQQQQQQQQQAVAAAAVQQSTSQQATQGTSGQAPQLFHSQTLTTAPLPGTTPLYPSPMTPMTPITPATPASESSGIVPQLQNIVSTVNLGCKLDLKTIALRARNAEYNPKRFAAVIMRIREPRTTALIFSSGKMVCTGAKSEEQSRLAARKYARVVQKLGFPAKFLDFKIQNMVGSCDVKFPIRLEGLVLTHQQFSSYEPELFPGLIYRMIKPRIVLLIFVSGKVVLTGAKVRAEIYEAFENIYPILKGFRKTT
UniProt P0DPB6: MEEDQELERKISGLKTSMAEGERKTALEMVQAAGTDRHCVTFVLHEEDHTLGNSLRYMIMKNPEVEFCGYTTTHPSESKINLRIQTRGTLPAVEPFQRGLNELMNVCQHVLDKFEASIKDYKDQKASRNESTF
UniProt Q9BUI4: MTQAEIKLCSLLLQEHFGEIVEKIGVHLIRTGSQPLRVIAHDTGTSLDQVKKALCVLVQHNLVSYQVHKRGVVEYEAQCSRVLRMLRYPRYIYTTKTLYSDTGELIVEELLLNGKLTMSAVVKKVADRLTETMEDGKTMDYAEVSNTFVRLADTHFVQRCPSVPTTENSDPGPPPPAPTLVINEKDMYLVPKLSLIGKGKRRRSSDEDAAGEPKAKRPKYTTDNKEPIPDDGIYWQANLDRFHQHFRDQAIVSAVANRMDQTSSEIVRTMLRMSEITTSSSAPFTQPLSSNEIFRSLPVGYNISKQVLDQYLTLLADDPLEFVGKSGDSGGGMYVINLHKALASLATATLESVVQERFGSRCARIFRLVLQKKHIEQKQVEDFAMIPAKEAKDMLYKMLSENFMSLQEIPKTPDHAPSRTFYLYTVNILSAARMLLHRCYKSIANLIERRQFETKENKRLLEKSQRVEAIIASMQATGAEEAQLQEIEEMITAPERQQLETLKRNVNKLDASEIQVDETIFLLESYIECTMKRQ
UniProt Q9Y2Y1: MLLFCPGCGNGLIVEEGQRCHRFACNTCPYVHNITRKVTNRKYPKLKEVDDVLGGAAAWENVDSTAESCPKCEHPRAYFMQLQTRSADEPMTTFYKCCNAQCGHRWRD
UniProt O75575: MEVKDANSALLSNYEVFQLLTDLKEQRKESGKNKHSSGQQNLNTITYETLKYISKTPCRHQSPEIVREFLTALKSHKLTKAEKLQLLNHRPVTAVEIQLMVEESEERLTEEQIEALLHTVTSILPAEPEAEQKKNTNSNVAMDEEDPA
UniProt Q9H1D9: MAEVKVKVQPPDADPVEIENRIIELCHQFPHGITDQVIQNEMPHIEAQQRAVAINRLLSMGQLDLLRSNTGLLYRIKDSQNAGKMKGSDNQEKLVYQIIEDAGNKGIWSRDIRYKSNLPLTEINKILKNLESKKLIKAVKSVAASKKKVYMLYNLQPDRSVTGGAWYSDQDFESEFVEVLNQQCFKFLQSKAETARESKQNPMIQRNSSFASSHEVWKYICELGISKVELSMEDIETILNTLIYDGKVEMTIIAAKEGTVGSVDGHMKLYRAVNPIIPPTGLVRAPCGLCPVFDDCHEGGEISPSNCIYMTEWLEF
UniProt O15160: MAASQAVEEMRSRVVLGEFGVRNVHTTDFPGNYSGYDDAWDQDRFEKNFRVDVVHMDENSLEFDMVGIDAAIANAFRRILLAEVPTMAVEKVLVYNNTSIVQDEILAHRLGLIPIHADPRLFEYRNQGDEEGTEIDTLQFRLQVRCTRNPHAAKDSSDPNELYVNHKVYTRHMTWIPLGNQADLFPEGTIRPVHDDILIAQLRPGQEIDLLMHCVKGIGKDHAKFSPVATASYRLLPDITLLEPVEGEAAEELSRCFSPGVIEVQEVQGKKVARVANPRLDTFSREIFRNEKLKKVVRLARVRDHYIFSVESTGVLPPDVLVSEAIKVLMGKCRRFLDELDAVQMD
UniProt O15318: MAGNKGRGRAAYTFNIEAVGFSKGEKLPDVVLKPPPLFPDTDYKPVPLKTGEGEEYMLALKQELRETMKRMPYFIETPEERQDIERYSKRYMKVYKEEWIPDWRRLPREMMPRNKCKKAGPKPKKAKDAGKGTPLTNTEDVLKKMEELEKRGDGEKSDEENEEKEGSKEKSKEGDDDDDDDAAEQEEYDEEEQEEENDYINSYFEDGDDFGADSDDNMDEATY

What was measured:
GST-Maf1 (human) [1] = molecular target: T1, GST-Maf1 (human) (UniProt Q9H063)
T1 sequence: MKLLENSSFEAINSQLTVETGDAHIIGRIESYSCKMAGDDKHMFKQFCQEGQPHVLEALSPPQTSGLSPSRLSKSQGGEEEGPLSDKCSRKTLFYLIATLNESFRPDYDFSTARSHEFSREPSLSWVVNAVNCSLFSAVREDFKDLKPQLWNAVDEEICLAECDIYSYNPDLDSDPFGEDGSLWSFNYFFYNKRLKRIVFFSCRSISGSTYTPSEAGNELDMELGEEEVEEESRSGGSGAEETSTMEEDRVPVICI

GST-Maf1 (human) [2] = molecular target: T1, GST-Maf1 (human); experiment: pull-down; GST pull-down with full-length GST-Maf1 in the experiment on truncated versions; data not shown; only the target purified
GST-Maf1 (human) [3] = molecular target: T1, GST-Maf1 (human); remark: listed apart in the source
GST-Maf1 (human) [4] = molecular target: T1, GST-Maf1 (human); experiment: pull-down; as a3, but GST-Maf1 and in vitro translated proteins treated with RNase A (100 µg) or DNase I (4 U) for 20 min at 30°C before the binding reaction; only the target purified
GST-Maf1^1-81 (human) = molecular target: T2, GST-Maf1^1-81 (human) (UniProt Q9H063)
T2 sequence: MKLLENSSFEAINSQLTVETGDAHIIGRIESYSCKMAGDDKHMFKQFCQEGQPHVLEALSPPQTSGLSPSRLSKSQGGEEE

Row | Substance | binding (GST-Maf1 (human) [1]) | other results
1 | TBP (in vitro translated) (from UniProt P20226 1-339) | no binding | 
2 | RPAC2 (in vitro translated) (from UniProt P0DPB6 1-133) |  | binding (GST-Maf1 (human) [2]): binds; binding (GST-Maf1 (human) [3]): binds; binding (GST-Maf1 (human) [4]): binds; binding (GST-Maf1^1-81 (human)): binds
3 | RPC3 (in vitro translated) (from UniProt Q9BUI4 1-534) | no binding | 
4 | RPC10 (in vitro translated) (from UniProt Q9Y2Y1 1-108) | no binding | 

Continued, in another order:

Row | binding (GST-Maf1 (human) [1]) | Substance | other results
5 | no binding | RPC9 (in vitro translated) (from UniProt O75575 1-148) | 
6 | no binding | RPC6 (in vitro translated) (from UniProt Q9H1D9 1-316) | 
7 | no binding | RPAC1 (in vitro translated) (from UniProt O15160 1-346) | 
8 | no binding | RPC7 (in vitro translated) (from UniProt O15318 1-223) | 
